The record followed here is ChEMBL document CHEMBL4888484, “Replenishing the malaria drug discovery pipeline: Screening and hit evaluation of the MMV Hit Generation Library 1 (HGL1) against asexual blood stage Plasmodium falciparum ,using a nano luciferase reporter read-out” (2022).

The whole screen tested about 150,000 compounds, of which about 540 (0.36%) showed an effect of 50% or more. Some of the results follow.

This assay deals with Plasmodium falciparum. Put plainly: Primary screen in NF54 nanoGlo assay, in single point, at 2uM, 72h; a lower Z score goes with more inhibition. In kind it is functional, Erythrocyte. The settings on record: timepoint 72 hour.
`Cn1ccnc1CN1C[C@@H]2CC[C@H]1CN(C(=O)c1cccnc1)C2`: the “% Inhibition” value was found to be 5% and the Z score is recorded as -1.06.

For the compound `CC(C)(C)OC(=O)NC1CCC2CN(Cc3ccncc3)CC21` (centres undefined), the “% Inhibition” value is given as -3% and the Z score amounted to 0.34.

Consider `O=C(c1ccc[nH]1)C(Cl)(Cl)Cl`, for which the “% Inhibition” value is listed as 18% and the Z score is on record as -2.1.

For `Cc1ncsc1C(=O)N1C[C@@H](c2ccc3c(c2)OCO3)[C@@H]2[C@H]1C1CCN2CC1`, the “% Inhibition” value is reported as -2% and the Z score is recorded as 0.25.

On to `C1CCC(C2NCCN3CCCC23)CC1` (centres undefined), for which the “% Inhibition” value is given as 2% and the Z score is on record as -0.29.

Regarding `C=CCc1cc(-c2c(C#N)c(N)nc3c2[C@@H]2CC[C@H](C3)N2C)ccc1O`, the “% Inhibition” value is 9% and the Z score is -1.27.

For the compound `COc1ccc2c(c1)[C@@]1(CCN(C(=O)c3ccccc3OC)C1)C(=O)N2C`, the “% Inhibition” value is listed as -8% and the Z score was found to be 1.12.

For `c1cncc([C@@H]2CCCN2c2nnc(C3CC3)s2)c1`, the “% Inhibition” value came out at 2% and the Z score is given as -0.36.

For `COc1ccc([C@H]2C[C@@H](O)[C@@H](O)[C@@H]2NCC(C)C)cc1`, the “% Inhibition” value is -12% and the Z score is 1.52.

Take `COC1CCN(S(=O)(=O)N2CCC[C@H]2c2cccnc2)CC1`: the “% Inhibition” value was -13% and the Z score was 2.35.

On to `COc1ccccc1CN1CC[C@]2(CCOC2)C1`, for which the “% Inhibition” value is -15% and the Z score amounted to 1.85.

`COC(=O)C1CC2C(CCC(C)N2CC(N)=O)O1` (centres undefined): the “% Inhibition” value was -3% and the Z score was 0.51.

As for `Cc1nn(-c2ccccc2)c(C)c1S(=O)(=O)N1CCC(C(=O)N2CCC3(CC2)OCCO3)CC1`, the “% Inhibition” value was -7% and the Z score is 0.95.

Consider `COC[C@@H](O)CNC(C)(C)Cc1ccc(Br)cc1`, for which the “% Inhibition” value was -14% and the Z score was 2.23.

Take `NC1(C(=O)N2C[C@@H](c3cccc(F)c3F)[C@@H]3[C@H]2C2CCN3CC2)CCC1`: the “% Inhibition” value was -4% and the Z score turned out to be 0.76.

`C#C[C@H]1C[N@@]2CC[C@H]1C[C@@H]2CNS(=O)(=O)c1ccc(OC)cc1`: the “% Inhibition” value is -6% and the Z score came out at 0.93.

Take `Cc1ccc(-c2nccn2CCc2c[nH]cn2)c(C)c1F`: the “% Inhibition” value is -1% and the Z score is reported as 0.18.

For `O=C(c1c[nH]c2ccccc12)[C@H]1CCCNC1`, the “% Inhibition” value is recorded as -6% and the Z score is given as 0.76.

`CN1C(=O)N(C)C(=O)C(Cc2nnc(-c3ccccc3Br)o2)(Cc2nnc(-c3ccccc3Br)o2)C1=O`: the “% Inhibition” value was -4% and the Z score is listed as 0.54.

As to `O=c1c2ccccc2nnn1C[C@H]1CC[C@H](C(=O)N2CCC3(CC2)OCCO3)CC1`, the “% Inhibition” value is -17% and the Z score was 2.4.

`O[C@@H](CNC1CCCCCC1)C(F)(F)F`: the “% Inhibition” value is -8% and the Z score is recorded as 0.99.

Consider `CC(=O)NCC(=O)NCC(=O)N[C@@H](C)Cc1ccc(C)cc1C`, for which the “% Inhibition” value was -13% and the Z score was found to be 1.73.

`COc1nc(C)cc(C)c1Cn1ccnc1-c1ccco1`: the “% Inhibition” value is recorded as -8% and the Z score came out at 0.92.

Turning to `CN1C[C@H]2CN(Cc3cncs3)C[C@@]2(C(=O)O)C1`, the “% Inhibition” value is on record as -23% and the Z score is reported as 2.26.

Consider `CCCCNC(=O)NCc1cncnc1N`, for which the “% Inhibition” value is -6% and the Z score turned out to be 1.13.

Consider `Cc1cc(C[C@H](C)NCc2cn(C(C)C)nc2C)n[nH]1`, for which the “% Inhibition” value was found to be 8% and the Z score is on record as -0.98.

As for `Cc1nnc(CN2CC[C@@H]3CCCC[C@H]3C2)s1`, the “% Inhibition” value was -19% and the Z score is 2.15.

As for `CCc1nnc2ccc(N3CC[C@@]4(CCCN(C)C4)C3)nn12`, the “% Inhibition” value was -13% and the Z score worked out at 1.28.

With `O=C(c1cc(-c2ccncc2)n(-c2ccccc2)n1)N1CCC2(CC1)OCCO2`, the “% Inhibition” value is given as -1% and the Z score is recorded as 0.2.

Regarding `c1cc(-c2ccncc2)cc(N2CCNCC2)c1`, the “% Inhibition” value was -3% and the Z score is 0.5.

Take `Cc1ccc(OCCN(C)[C@@H](C)Cc2cnccn2)c(C)c1`: the “% Inhibition” value was -3% and the Z score turned out to be 0.56.

As to `CCNC(=O)N1C[C@H](c2cccc(F)c2F)[C@@H]2[C@H]1C1CCN2CC1`, the “% Inhibition” value was 6% and the Z score is -0.72.

Turning to `O=C(C[C@@H]1NC(=O)N(Cc2cccc(Cl)c2)C1=O)N1C[C@@H]2C[C@@H](C1)c1cccc(=O)n1C2`, the “% Inhibition” value was -16% and the Z score worked out at 2.03.

Consider `CC12CCC(C(=O)Nc3ccc(Cl)cc3C(=O)c3ccccc3)(CC1=O)C2(C)C` (centres undefined), for which the “% Inhibition” value is -3% and the Z score came out at 0.51.

As for `Cc1ccccc1C(=O)N1CCC2(CC1)N(c1ccccc1)C(=O)CS2(=O)=O`, the “% Inhibition” value is on record as -5% and the Z score is on record as 0.71.

In the case of `O=C(c1onc2ccccc12)N1CCC2(CC1)NCCNC2=O`, the “% Inhibition” value is -16% and the Z score came to 2.06.

As for `CC1(O)C[C@]2(C)N(O)C3CCCC[C@@H]3N2O1` (some centres undefined), the “% Inhibition” value is recorded as 3% and the Z score was -0.35.

As for `Cc1nc(NCCc2c[nH]cn2)cc([C@H]2C[C@@H](O)C2)n1`, the “% Inhibition” value amounted to 3% and the Z score is given as -0.48.

For the compound `COc1ccccc1N1CCN(C(=O)c2cnc(-c3ccccc3)nc2N(C)C2CCN(C)CC2)CC1`, the “% Inhibition” value is -12% and the Z score came out at 1.31.

Take `CN(CCc1ccccn1)CC1CCCCC1`: the “% Inhibition” value amounted to 11% and the Z score is -1.63.

For `CCn1nc(C)c(C(=O)N2C[C@H](c3ccccc3)[C@@H]3[C@H]2C2CCN3CC2)c1C`, the “% Inhibition” value was found to be 4% and the Z score is on record as -0.44.

`c1ccc(CC2CC3CCC(C2)N3)cc1` (centres undefined): the “% Inhibition” value is on record as -10% and the Z score amounted to 0.85.
